Experimental data as given in ChEMBL document CHEMBL1201862, “PubChem BioAssay data set” (2004).

What follows are molecules tested on NCI-H322M (assay: NCI anticancer screen, dose series, 48 h).
For `CC(C)O/N=C/c1cc(NC(=S)OC(C)C)ccc1Cl`, the GI50 was inactive: > 80.9 µM.
With `O=P(O)(O)OC1O[C@H](CO)[C@H](O)[C@H](O)[C@H]1O` (some centres not stated) the GI50 was inactive: > 100 µM.
`O=S(=O)(c1ccc(Cl)cc1)c1ccccc1C1=NCCN1` was tested, and the GI50 was inactive: > 100 µM.
With `COc1cc(-c2ccc(Nc3ccccc3C(=O)O)c(OC)c2)ccc1Nc1ccccc1C(=O)O` the GI50 was inactive: 25.6 µM.
In the case of `CC(C)N1CSC(=S)N(Cc2ccccc2)C1`, the GI50 is reported as inactive: > 10 µM.
`N#CC(C#N)=NNc1ccc2cn[nH]c2c1` was tested, and the GI50 was inactive: > 100 µM.
For `Cc1nc2c(o1)/C(=N\c1ccccc1)c1ccccc1C2=O`, the GI50 was inactive: 15 µM.
For `CC(NCCN(C)C)C1CCC2C3CCc4cc(O)ccc4C3CCC12C` (configuration not stated), the GI50 was inactive: 4.02 µM.
For `COc1cc(C2c3cc4c(cc3CC3COC(=O)N32)OCO4)cc(OC)c1OC` (configuration not stated), the GI50 was inactive: 5.85 µM.
`O=C(OCc1ccccc1)c1ccc(NCc2cc(O)ccc2O)cc1` was tested, and the GI50 was inactive: 8.77 µM.
In the case of `O=C1C(c2c(O)[nH]c3ccc(Br)cc23)=Nc2ccccc21`, the GI50 is reported as inactive: 10.6 µM.
With `C[C@@]1(O)C[C@@H](N2C(=O)O[C@@H](c3ccccc3)[C@H]2c2ccccc2)[C@@H]1COCc1ccccc1` the GI50 was inactive: 28.9 µM.
With `Nc1ncnc2c1ncn2[C@@H]1C[C@H]1CO` the GI50 was inactive: > 100 µM.
With `O=C(/C=C1\C[C@H]2C=Nc3ccccc3C(=O)N2C1)NCCCCNC(=O)/C=C1\C[C@H]2C=Nc3ccccc3C(=O)N2C1` the GI50 was inactive: 17.3 µM.
With `CC1CCC2(OC1)OC1CC3C4CCC5CC(O)CCC5(C)C4CC(=O)OC3(C)C1C2C` (configuration not stated) the GI50 was inactive: > 100 µM.
`CCOC(=O)/C(C#N)=C1\N[C@H](C(=O)OCC)CO1` was tested, and the GI50 was inactive: > 100 µM.
For `COc1c(N2CCCCC2)c2c(=O)c3ccccc3oc2c2cc(C)oc12`, the GI50 was inactive: 8.39 µM.
In the case of `N#CCCN(CCC#N)c1ccc(/C=C2\N=C(c3ccccc3)N(c3ccc(C(=O)O)cc3)C2=O)cc1`, the GI50 is reported as inactive: 38.5 µM.
With `O=S(=O)(N1CCCCN(S(=O)(=O)C(F)(F)F)CCCN(S(=O)(=O)C(F)(F)F)CCCCN(S(=O)(=O)C(F)(F)F)CCCN(S(=O)(=O)C(F)(F)F)CCCCN(S(=O)(=O)C(F)(F)F)CCCN(S(=O)(=O)C(F)(F)F)CCCCN(S(=O)(=O)C(F)(F)F)CCC1)C(F)(F)F` the GI50 was inactive: > 31.6 µM.
`O=Cc1ccc2c(c1)CC1(Cc3ccccc3C1)C2` was tested, and the GI50 was inactive: 71.3 µM.
With `COc1ccc(N2C(=O)C3c4[nH]c5ccc(OCc6ccccc6)cc5c4C4CCC(c5ccccc5)CC4C3C2=O)cc1` (configuration not stated) the GI50 was inactive: > 100 µM.
`O=S(=O)(O)c1ccccc1/N=N\c1ccc(/N=N/c2c(O)ccc3ccccc23)c(S(=O)(=O)O)c1` was tested, and the GI50 was inactive: > 100 µM.
For `CN(C)/C=N\c1nc(=O)n(C2CCC(CO)O2)cc1F` (configuration not stated), the GI50 was inactive: > 100 µM.
In the case of `O=C(O)C1C2CCC(O2)C1C(=O)Nc1cccc2cccnc12` (configuration not stated), the GI50 is reported as inactive: > 100 µM.
With `O=C1CCCC/C1=C1\C(=O)Nc2cc(F)ccc21` the GI50 was inactive: > 100 µM.
For `Cc1ccc2[nH]c(=O)c(C(C#N)c3ccccc3)nc2c1` (configuration not stated), the GI50 was inactive: 62.1 µM.
For `Cc1ccc(S(=O)(=O)N/N=C2\CCCCCCCCCCC2CN(C)C)cc1` (configuration not stated), the GI50 was inactive: 22.4 µM.
With `COC(=O)c1nc2c3c(cccc3c1C(=O)OC)Nc1ccccc1-2` the GI50 was inactive: 57.4 µM.
With `CC(C)(C)C1CCC2c3c([nH]c4ccccc34)C3C(=O)N(c4ccccc4)C(=O)C3C2C1` (configuration not stated) the GI50 was inactive: 23.1 µM.
For `O=C(C(=O)N1CC2C=CC1CC2)c1c[nH]c2ccccc12` (configuration not stated), the GI50 was inactive: > 100 µM.
For `COc1cccc(-c2nc(-c3cnccn3)n(COCCO)n2)c1`, the GI50 was inactive: > 100 µM.
In the case of `CC(=O)ON(OC(C)=O)c1ccc(C)cc1`, the GI50 is reported as inactive: 55 µM.
In the case of `CC[C@@]1(O)C(=O)OCc2c1cc1n(c2=O)Cc2c-1nc1ccccc1c2Cl`, the GI50 is reported as active: 0.157 µM.
In the case of `S=C(/N=c1\sc(NCc2ccccc2)nc2sc3c(c12)CCN(N1CCc2c(sc4nc(NCc5ccccc5)s/c(=N\C(=S)NCc5ccccc5)c24)C1)C3)NCc1ccccc1`, the GI50 is reported as inactive: 32.8 µM.
In the case of `CC(=O)CC(=O)N1CCOC1=O`, the GI50 is reported as inactive: > 10 µM.
`c1nncn1C12C3C4C5C3C1C5C42` (configuration not stated) was tested, and the GI50 was inactive: > 100 µM.
With `CCCCC1=C(C(=O)N2CCOCC2)C2(OCCO2)C1Cl` (configuration not stated) the GI50 was inactive: 90.4 µM.
`Cc1ccc(C)c2c1n1c(=O)n(C)c(=O)n21` was tested, and the GI50 was inactive: > 100 µM.
`CCC/C=C\C=C\C1(NS(=O)(=O)c2ccc(C)cc2)CCC(C(C)(C)C)CC1` (configuration not stated) was tested, and the GI50 was inactive: 10.6 µM.
`CN(CCO)c1nc(=O)c2c(n1C1OC(CO)C(O)C(O)C1O)CCCC2` (configuration not stated) was tested, and the GI50 was inactive: > 100 µM.
With `CCCCCC(/C=C/c1ncccc1OCCCCCC(=O)O)=N\NC1=NCCN1` the GI50 was inactive: > 100 µM.
With `CC(=O)OC(=C(C#N)C#N)c1nccnc1C(C)=O` the GI50 was inactive: > 20 µM.
In the case of `COc1ccccc1C1C(C(=O)O)=C(CO)Oc2cc3c(cc21)OCO3` (configuration not stated), the GI50 is reported as inactive: > 100 µM.
For `CCC(=O)Nc1nc2c(ncn2C2OC(COC(=O)CC)C(OC(=O)CC)C2OC(=O)CC)c(=O)[nH]1` (configuration not stated), the GI50 was inactive: > 100 µM.
For `COC12C=CC(CC1)C(C)(C)C2=O` (configuration not stated), the GI50 was inactive: > 100 µM.
With `O=C(O)c1ccccc1Cc1ccco1` the GI50 was inactive: > 100 µM.
With `O=c1[nH]c2nccn2c(Cl)c1Br` the GI50 was inactive: 21.6 µM.
`C/C=C(\N=C=S)C(=O)OC1C(COC(C)=O)OC([C@]2(O)CC(=O)C(N)=C(C(=O)O)C2=O)C(O)C1OC1CC(OC)C(O)([C@@H](C)OC(=O)[C@@H](C)CC)C(C)O1` (some centres not stated) was tested, and the GI50 was inactive: 18.8 µM.
For `CC(C)(C)NCc1cc(C(C)(C)C)cc(-c2ccc(Cl)cc2)c1O`, the GI50 was inactive: 13.6 µM.
For `O=C1C=C(Nc2ccccc2C(=O)CC(=O)C(=O)Nc2ccc(Cl)cc2)c2ccccc2C1=O`, the GI50 was inactive: 14.9 µM.
With `O=Nc1c(-c2cccc([N+](=O)[O-])c2)nc2cnccn12` the GI50 was inactive: 18.7 µM.
`Nc1nc(O)nc2sc3c(c12)CCCC3` was tested, and the GI50 was inactive: > 100 µM.
`C=C1C(=O)OC2/C=C(\CO)C3OC3C3OC3(C)CC(OC(=O)/C(=C/C)CO)C12` (configuration not stated) was tested, and the GI50 was inactive: > 100 µM.
In the case of `CC1=C(Cl)C[C@@H](/C(C)=C\Cl)O[C@@]1(O)C(Br)Br`, the GI50 is reported as inactive: > 100 µM.
With `Nc1ncnc2c1nnn2C1C=C(CO)C(O)C1O` (configuration not stated) the GI50 was inactive: 43.5 µM.
With `O=C(Nc1cc(Cl)c(Cl)cc1Cl)C(=O)C(C(=O)c1ccccc1)C1OC(=O)c2ccccc21` (configuration not stated) the GI50 was inactive: > 100 µM.
`CN(C)CCNC(=O)c1cccc2[nH]c(-c3ccccn3)nc12` was tested, and the GI50 was inactive: 30.3 µM.
For `c1ccc(-c2cc(-c3ccccc3)nc(-c3ccncc3)c2)cc1`, the GI50 was inactive: > 100 µM.
In the case of `CC(CC(=O)N1C(=O)C(C)(C)[C@@H](O)[C@H]1CC(C)C(Cl)(Cl)Cl)C(Cl)(Cl)Cl` (some centres not stated), the GI50 is reported as inactive: > 100 µM.
In the case of `O=C1C(Cl)C(c2cccc(O)c2)N1n1cnc2ccccc2c1=O` (configuration not stated), the GI50 is reported as inactive: > 100 µM.
`COC(=O)c1ccc(NCC2=CC(=O)c3ccccc3C2=O)cc1` was tested, and the GI50 was inactive: 16.9 µM.
`CN(CCN(C)Cc1ccc(Cl)c(Cl)c1)CCN1CCCC1` was tested, and the GI50 was inactive: 17.1 µM.
`C/C=C/[C@H]1O[C@@](O)([C@@H](C)[C@H](O)[C@H](C)[C@H]2OC(=O)/C(OC)=C/C(C)=C/[C@@H](C)[C@@H](O)[C@@H](CC)[C@@H](O)[C@H](C)C/C(C)=C/C=C/[C@@H]2OC)C[C@H](OC2CC(O)C(O)C(C)O2)[C@@H]1C` (some centres not stated) was tested, and the GI50 was inactive: 3.18 µM.
`N#CC1N(C(=O)c2ccc(F)cc2)c2ccccc2N1C(=O)c1ccc(F)cc1` was tested, and the GI50 was inactive: > 100 µM.
`Brc1ccc(C2(N3CCCCC3)CCCCC2)s1` was tested, and the GI50 was inactive: > 100 µM.
In the case of `O=c1c2cc([N+](=O)[O-])ccc2oc2nc3n(c(=O)c12)CCCS3`, the GI50 is reported as inactive: > 100 µM.
With `COC(=O)C1=C(c2cc(OC)c(OC)c(OC)c2)OC(c2ccc3c(c2)OCO3)C1` (configuration not stated) the GI50 was inactive: > 100 µM.
`O=C(O)/C(Cl)=C(\Cl)Nc1cccc(C(F)(F)F)c1` was tested, and the GI50 was inactive: 17.1 µM.
`O=[N+]([O-])c1cccc(C2=NN(c3ccccc3)C[N+](c3ccc(Br)cc3)=N2)c1` was tested, and the GI50 was inactive: > 100 µM.
`COC(=O)C1=C(OC)C(=P2(c3ccccc3)CC(c3ccccc3)=C2c2ccccc2)C(C(=O)OC)=C1C(=O)OC` (configuration not stated) was tested, and the GI50 was inactive: > 100 µM.
For `Clc1ccc(Nc2nnc(CNc3ccc(-c4nnc(Nc5ccc(Cl)cc5)o4)cc3)o2)cc1`, the GI50 was inactive: 26.4 µM.
With `C=C1CC(CCCl)(c2ccccc2)OC1=O` (configuration not stated) the GI50 was inactive: > 92.7 µM.
For `COc1cccc(C2SCC(=O)N2c2ccc(-c3ccc(-n4c(-c5ccccc5)nc5ccccc5c4=O)cc3)cc2)c1OC` (configuration not stated), the GI50 was inactive: > 100 µM.
In the case of `C/C(N)=C/C(=O)c1[nH]c(C(=O)O)cc1C1CCN(Cc2ccccc2)C1=O` (configuration not stated), the GI50 is reported as inactive: 23.1 µM.
In the case of `O=C1CSC(=O)/C1=C\NNc1nc2ccccc2o1`, the GI50 is reported as inactive: 25.6 µM.
With `CN(C)CC1CCCC/C1=N\OC(=O)c1ccccc1` (configuration not stated) the GI50 was inactive: > 100 µM.
For `NC1CCCCC1`, the GI50 was inactive: > 562 µM.
`CCN(CC)CCCNc1nncc2cc3c([nH]c4ccc(OC)cc43)c(C)c12` was tested, and the GI50 was inactive: 3.08 µM.
For `COc1cc(/C=N/n2c(-c3ccccc3)n[nH]c2=O)cc(OC)c1OC`, the GI50 was inactive: 13.6 µM.
`COc1ccc2nc3cc(Cl)ccc3c(NCCNC(=O)Cn3c(=O)n(C)c(=O)c4c3nc3c(c(=O)n(C)c(=O)n3C)[n+]4[O-])c2c1` was tested, and the GI50 was inactive: 37 µM.
`N#Cc1c(-c2ccccc2)[nH]c2ccc(Cl)cc2c1=O` was tested, and the GI50 was inactive: > 100 µM.
`CCCN(CCCN)/[N+]([O-])=N\O` was tested, and the GI50 was inactive: > 100 µM.
`CN(C(=O)C12C3C4C1C1C2C3C41C#N)C(C)(C)C` (configuration not stated) was tested, and the GI50 was inactive: > 100 µM.
For `COc1ccc(C(O)CC(O)(C(F)(F)F)C(F)(F)F)cc1` (configuration not stated), the GI50 was inactive: 42.8 µM.
With `Fc1ccc2c(c1)cc1ccc3cccc4ccc2c1c34` the GI50 was inactive: > 100 µM.
`CC(C)(c1ccc(C=O)o1)c1ccc(C(C)(C)c2ccc(C=O)o2)o1` was tested, and the GI50 was inactive: > 100 µM.
For `CC[C@@]1(OC(=O)CCC(=O)O)C(=O)OCc2c1cc1n(c2=O)Cc2cc3ccccc3nc2-1`, the GI50 was active: 0.532 µM.
In the case of `CC1(C)CCCC2(C)[C@@H]1CC[C@@]13CC(=O)[C@@](C)(CC[C@@H]21)C3` (some centres not stated), the GI50 is reported as inactive: > 100 µM.
With `CN(N=O)C(=O)ON1C(=O)CCC1=O` the GI50 was inactive: > 100 µM.
`OCC1OC(n2cnc3c2NC=NC[C@H]3O)C(O)C1O` (some centres not stated) was tested, and the GI50 was inactive: 379 µM.
`COc1ccccc1N1CCN(Cn2c(=O)oc3cccnc32)CC1` was tested, and the GI50 was inactive: > 100 µM.
For `O=c1oc2cc(O)ccc2cc1-c1nc2ccccc2s1`, the GI50 was inactive: 25.2 µM.

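Dose response: 5 concentrations. Exposure: 48 h. Format: 96-well plates. Endpoint: linear interpolation; highest concentration if not reached. Abbreviation: GI50, concentration required for 50% inhibition of growth.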 The source made the active and inactive calls. No stated cut-off is given here; in the data, active = GI50 up to about 1.1 µM and inactive = higher.
